Measurements from article PMC7819943, “Rice protein-binding microarrays: a tool to detect cis-acting elements near promoter regions in rice”.
The other results are listed elsewhere or left out.

These sequences were tested against T1, OsWOX13 (Oryza sativa, UniProt Q5QMM3 1-267) (assay: protein-binding microarray (RPBM); PBS, 2% BSA, 51.3 ng/ul salmon testes DNA, 50 uM zinc acetate, 200 nM TF, 25 C, 1 h; high values mean tight binding). Settings: protein: recombinant; tags: N-terminal polyhistidine and DsRed monomer fusion (pET32a); label: CyDye5-dUTP incorporated in the synthesized complementary strand; 3' TTTTT single-stranded linker to array surface; dsDNA, one strand shown.
T1 sequence: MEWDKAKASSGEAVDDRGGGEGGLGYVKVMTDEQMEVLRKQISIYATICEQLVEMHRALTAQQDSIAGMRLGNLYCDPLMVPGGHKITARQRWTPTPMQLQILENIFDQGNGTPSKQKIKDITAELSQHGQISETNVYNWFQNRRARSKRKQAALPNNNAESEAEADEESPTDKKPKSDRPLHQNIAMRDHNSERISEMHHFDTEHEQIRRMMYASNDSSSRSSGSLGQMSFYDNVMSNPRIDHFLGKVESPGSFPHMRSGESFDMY
Method in brief: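 Per-feature fluorescence intensity (arbitrary units), read on an Axon 4000B scanner, is the binding signal. Transcription factors carrying an N-terminal polyhistidine tag and DsRed fusion were expressed in E. coli BL21-CodonPlus and purified on Ni–NTA. A custom Agilent array, made double-stranded by primer extension with Cy5-dUTP and blocked with 2% BSA, was incubated with 200 nM protein in PBS, 2% BSA, salmon testes DNA and 50 µM zinc acetate at 25 °C for 1 h and then washed.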

Sequence	binding signal
CTTAATTAATTCGATCGACATCGATCTTGATGATTCCCTGCGGAGTCACCTAGTGCAG	33500 fluorescence intensity (a.u.)
ACATTTAATACTTCTAATTAGCGTCCAAACATCTGATGTGCGGAGTCACCTAGTGCAG	9640 fluorescence intensity (a.u.)
GTGGGTGATTTGTTGCAAAAGAATATTTTAATTCACTGTACGGAGTCACCTAGTGCAG	11700 fluorescence intensity (a.u.)
GATTAATGAAGTTTTAATTAAACCGAGACAAAATCTTTATCGGAGTCACCTAGTGCAG	14700 fluorescence intensity (a.u.)
TATACATTGAAATTTATAATTGCGTGTAATATAGGATGGACGGAGTCACCTAGTGCAG	10100 fluorescence intensity (a.u.)
CACCAATCAGATCATCAGTTCATCTTTGTGGTTGTGTGGGCGGAGTCACCTAGTGCAG	18100 fluorescence intensity (a.u.)
ACAGTGAAATCAATCCAAAATCATTTATAGGCAATGTACTCGGAGTCACCTAGTGCAG	3520 fluorescence intensity (a.u.)
AATAAATAAATGAGGACTTGTTATAGTTGGTTGAGATGAACGGAGTCACCTAGTGCAG	4120 fluorescence intensity (a.u.)
CTAAATTGATTATACATGATTTAGAGTTAGTAGTTAGCTACGGAGTCACCTAGTGCAG	59600 fluorescence intensity (a.u.)
CCAATTCAATTAATAGGTATTCAAATGAATACCCAAGATTCGGAGTCACCTAGTGCAG	8620 fluorescence intensity (a.u.)
ATAATGATAATCAAGCATGATTCGTTGGTTTGGAGTACCACGGAGTCACCTAGTGCAG	15700 fluorescence intensity (a.u.)
CTTGATTCATCAACAAATGTTATTTAAATATGACATAAATCGGAGTCACCTAGTGCAG	3240 fluorescence intensity (a.u.)
GAAGGAGTTGAGGATTGACATTAATTATCAGCGCATAGGGCGGAGTCACCTAGTGCAG	6240 fluorescence intensity (a.u.)
ACACATAAAAGATAGATAGATAATGGATAGAGAACCAGTCCGGAGTCACCTAGTGCAG	5110 fluorescence intensity (a.u.)
TAGCTAATTTGCACCCACATGCATGTGCTTCGAGTAGTTACGGAGTCACCTAGTGCAG	7070 fluorescence intensity (a.u.)
TATTAGCACATGATTAATTAAGTACAAGATAGGTATCCCGCGGAGTCACCTAGTGCAG	9350 fluorescence intensity (a.u.)
ACCCCTTCTAATTAATTGATATTATGTACTTCCCTAATATCGGAGTCACCTAGTGCAG	37700 fluorescence intensity (a.u.)
TGCCTTGATTAATCCGTCGTCGTTGTGTCGTCGCACGGCGCGGAGTCACCTAGTGCAG	29200 fluorescence intensity (a.u.)
ATTGTGATAACGTTTCATAATTACTATGTGCTCCTTATGTCGGAGTCACCTAGTGCAG	6850 fluorescence intensity (a.u.)
ATAACATGTCAGTAATTACTTGAAATAGAAAATCAACTAACGGAGTCACCTAGTGCAG	13200 fluorescence intensity (a.u.)
CCATTGACAATTAATTAGACCCAACGCAACTCAGCTGCTTCGGAGTCACCTAGTGCAG	26900 fluorescence intensity (a.u.)

Sequence	binding signal
AGCCCGATTTTCTGTTCATTTCCACGTTTGATTTGGTGCACGGAGTCACCTAGTGCAG	3350 fluorescence intensity (a.u.)
TTTCTTGATTTGGTTGGGATTGGTTGTTCTTGGGCTTATCCGGAGTCACCTAGTGCAG	24600 fluorescence intensity (a.u.)
CAATTTATCCCAATTATGATCTGATTATACCATTGTTTTCCGGAGTCACCTAGTGCAG	6600 fluorescence intensity (a.u.)
AAAGTGATTTGTAAGATTGTTCACAAAATGTACATCTCTTCGGAGTCACCTAGTGCAG	20000 fluorescence intensity (a.u.)
ATTTTCTGTCAACTTCGACTAACAAAATAAAATGACCAGCCGGAGTCACCTAGTGCAG	4590 fluorescence intensity (a.u.)
GTTAACGACCAAAATTGGTAGCATCGACACCTCCCTGGGCCGGAGTCACCTAGTGCAG	4240 fluorescence intensity (a.u.)
CTAAACTGCACGTAACCTCCAATCTTTGAGAATACCATGGCGGAGTCACCTAGTGCAG	14200 fluorescence intensity (a.u.)
TCATGATTTCTGAATCTTTGTCTTTTCCTTGAGTAGCTATCGGAGTCACCTAGTGCAG	7640 fluorescence intensity (a.u.)
AAAGCAGCATCCATTTAATTTAATTTAATTTCCCCTCTCCCGGAGTCACCTAGTGCAG	4500 fluorescence intensity (a.u.)
GTCAAACCTAATCAATATACATTTGTCGGCTTAGCCATCGCGGAGTCACCTAGTGCAG	5560 fluorescence intensity (a.u.)
TTCGATTGATTGATAGTTGATTGTGTGTTTACAATTGAACCGGAGTCACCTAGTGCAG	52600 fluorescence intensity (a.u.)
TTAAATGTTAGTTTAAATGAAATTAATTTCGTGTTGTAAACGGAGTCACCTAGTGCAG	14200 fluorescence intensity (a.u.)
TGCAAATTACCCATAAATCAAAGGGTATCCGACCTATATTCGGAGTCACCTAGTGCAG	11700 fluorescence intensity (a.u.)
TAAGTGATTTAAATTGTCTGTAAACTGATGGCAACAATATCGGAGTCACCTAGTGCAG	46400 fluorescence intensity (a.u.)
TCCTATTCAATCATAAATAAATATTCTAATGGATGAGGTGCGGAGTCACCTAGTGCAG	25900 fluorescence intensity (a.u.)
CTAATTTAAATTTTGTTTAGTCCTAATCGAAGCTGAAGACCGGAGTCACCTAGTGCAG	21200 fluorescence intensity (a.u.)
AGCTACTAATCATCTCTGAATTAATCTGCTTACTACTCATCGGAGTCACCTAGTGCAG	8300 fluorescence intensity (a.u.)
CAGGTGATTTGGCGCTGACAACGAAAAGTCAATTTTGAAACGGAGTCACCTAGTGCAG	6680 fluorescence intensity (a.u.)
GTCAACTAATCTGCCATTGATAATTTAAGATAACATATAACGGAGTCACCTAGTGCAG	4490 fluorescence intensity (a.u.)
GAATTAGACAGCCGTTGGAGCCCTTCGACCCCTCCTTGTCCGGAGTCACCTAGTGCAG	3990 fluorescence intensity (a.u.)
ATAACGTTGATTTGGGCAACAAATTAAATAGGCACAGTAACGGAGTCACCTAGTGCAG	19500 fluorescence intensity (a.u.)

Sequence	binding signal
CTGAGATTTGCTTGTTTATTGTTATGTTTCAGGAAATGGGCGGAGTCACCTAGTGCAG	11400 fluorescence intensity (a.u.)
TTTTGTAACTGATCGTTATTAGATCGGATTTGTTCATTGTCGGAGTCACCTAGTGCAG	3360 fluorescence intensity (a.u.)
TTTTAATTTACTAATACTTTTAAGTCACTAAGAATATATGCGGAGTCACCTAGTGCAG	8540 fluorescence intensity (a.u.)
CTGTGATTTATTGGCTTGCAATGAGCGCACAAAAGAGGTTCGGAGTCACCTAGTGCAG	29400 fluorescence intensity (a.u.)
TAAATGGAAATTTACAATATGTTTTGTAGTACTTACGTGACGGAGTCACCTAGTGCAG	3580 fluorescence intensity (a.u.)
AACTGACTGGCACGTCCGTATCTCACCAACCTTTGGTCCTCGGAGTCACCTAGTGCAG	15000 fluorescence intensity (a.u.)
CAAACTGTCCAATTAGGCCCATTTACAAATTCACAAATATCGGAGTCACCTAGTGCAG	5140 fluorescence intensity (a.u.)
ACATAATAACAAGTTAATACTAATTAATGTCAACTTGAATCGGAGTCACCTAGTGCAG	11100 fluorescence intensity (a.u.)
AGTAGATAATTCATTGGATAATTAATCAAACACAGCATATCGGAGTCACCTAGTGCAG	10700 fluorescence intensity (a.u.)
GCTGCTAATTAACCATCATCTACTAGAAATCAAAGAACTACGGAGTCACCTAGTGCAG	8160 fluorescence intensity (a.u.)
AATAAATTATAAGTAAATAAATATGGAGTTATTTTACCCCCGGAGTCACCTAGTGCAG	28600 fluorescence intensity (a.u.)
ATAAATGGTGAAGGTTGTGATTTGATGAGTAGTGTAGGTACGGAGTCACCTAGTGCAG	5990 fluorescence intensity (a.u.)
TTCTTGCAATAATCAATCAACCTCAGTTGAAGACATGTTGCGGAGTCACCTAGTGCAG	19900 fluorescence intensity (a.u.)
CCCTTCTCATCAGTTGTCAGTCACGCATCGGCGCCGCCCTCGGAGTCACCTAGTGCAG	3300 fluorescence intensity (a.u.)
TCGTGATGACAGTTTACTCTTTAAATGAGAGTAATTAACTCGGAGTCACCTAGTGCAG	17400 fluorescence intensity (a.u.)
TATATGATTTATAAGCCGGTGGATTTACTGTCCTAAGTTTCGGAGTCACCTAGTGCAG	23400 fluorescence intensity (a.u.)
AGACGGAATTGGAATGGTAATTTAAGATGTTGCTTTTGTACGGAGTCACCTAGTGCAG	9460 fluorescence intensity (a.u.)
ATAGTGTACTAATCAATTGGGTCATGGGTTTCACTTAACCCGGAGTCACCTAGTGCAG	3680 fluorescence intensity (a.u.)
ACATGATACGGCCCAAATGATTAAAGTTCTCCGAAACGAGCGGAGTCACCTAGTGCAG	3350 fluorescence intensity (a.u.)
CCAACTGACATTGATATCCATTTCGAGAAACTGTGGAAAGCGGAGTCACCTAGTGCAG	3950 fluorescence intensity (a.u.)
ACAACACCTTAATTACCATTCCAACACTTTAATGATGCTACGGAGTCACCTAGTGCAG	10400 fluorescence intensity (a.u.)

Sequence	binding signal
GGATCTGATTAAATTATTGTCTTTACATCCATTTAATTTTCGGAGTCACCTAGTGCAG	19300 fluorescence intensity (a.u.)
CGTAGATTTGACCGAACAAATTGTACAGTAATGTACTAGGCGGAGTCACCTAGTGCAG	20100 fluorescence intensity (a.u.)
GTACCGACAAATTTGATTTCTGCAACTTCCGCATCTTTTCCGGAGTCACCTAGTGCAG	6410 fluorescence intensity (a.u.)
AATTTAATTAATGACAAATATAATTAGCTCTCTATCCAGGCGGAGTCACCTAGTGCAG	55500 fluorescence intensity (a.u.)
CTAGAACAAATTGCAAATTCCACCTGTAAACTGCGAGACGCGGAGTCACCTAGTGCAG	13700 fluorescence intensity (a.u.)
ATGCCTGATTGGAAATCTACTATTACTATTCATGATACCGCGGAGTCACCTAGTGCAG	58500 fluorescence intensity (a.u.)
ATTCAAATAATTTATATATAGAATATTTCTATACATAAAGCGGAGTCACCTAGTGCAG	3250 fluorescence intensity (a.u.)
ATATTTAATGCTAGATTGAATGAAAATTTTATTGTTTTCACGGAGTCACCTAGTGCAG	3980 fluorescence intensity (a.u.)
AAAATAATTAATACTTAATTAATCATGTGTTATTGGCTTACGGAGTCACCTAGTGCAG	40800 fluorescence intensity (a.u.)
GCCTAATGATTCCATCCGATCTGAGTGTGTTGCCTGTAGACGGAGTCACCTAGTGCAG	5050 fluorescence intensity (a.u.)
CTGATAATTGGGCCGGGGCCGGTGATCGGTTTTGCAGACACGGAGTCACCTAGTGCAG	18400 fluorescence intensity (a.u.)
TCTTAAATTATGATTTATATTTGAGTGGTTCTAGAAAGTCCGGAGTCACCTAGTGCAG	40100 fluorescence intensity (a.u.)
AAGGGAAATGATTTACCATCCCTCTTTAAATCTTAACCATCGGAGTCACCTAGTGCAG	3860 fluorescence intensity (a.u.)
TAAACCAATTACAATGATTATTTTCAACCGACCACCGATTCGGAGTCACCTAGTGCAG	23300 fluorescence intensity (a.u.)
AGAGATATGATTTAGTTAAGATGAAATTCATGAGCTGCAGCGGAGTCACCTAGTGCAG	3370 fluorescence intensity (a.u.)
TTATAGAACAAGATTGGAATCTAAACAGAACCTTTGTTTACGGAGTCACCTAGTGCAG	3500 fluorescence intensity (a.u.)
ATGTAATTATAATTTATTTTGTTATAAGTTGTTTTATCACCGGAGTCACCTAGTGCAG	39900 fluorescence intensity (a.u.)
TGACTTAAATTACATAGCATGATATATATTTATAGAGGATCGGAGTCACCTAGTGCAG	8420 fluorescence intensity (a.u.)
TCTAATTTATCTATAGCCAATCTAATAGCTCATTCATACACGGAGTCACCTAGTGCAG	15500 fluorescence intensity (a.u.)
AAGAAATTTGGTTATTGGGCTGTCAAAATTATGATAAGGTCGGAGTCACCTAGTGCAG	4990 fluorescence intensity (a.u.)
CTTTGTAGTGATTGGGCATTTGGGCACCAGCGTTCCTTGCCGGAGTCACCTAGTGCAG	28200 fluorescence intensity (a.u.)
